Test results taken from PubChem BioAssay AID485281 (National Center for Advancing Translational Sciences (NCATS), 2010).
Screen size: about 350,000 compounds; about 260 (0.074%) were called active. The shares of active, inactive and inconclusive entries below differ from those in the screen. Calls follow the shape of the dose curve; as a rule, active = well fitted inhibition curve with a large enough effect; inconclusive = small, poorly fitted or top-dose-only effect; inactive = no such curve, though single readings can be large or run the other way. A potency beside an inconclusive call is a rough fit, not a confirmed value.

Each molecule was assayed against Ferritin light chain (Equus caballus) (UniProt P02791) (assay: qHTS Assay for Identification of Novel General Anesthetics). Details: apoferritin/1-aminoanthracene competitive binding, fluorescence; series mostly up to 77.5 µM.
Sequence of UniProt P02791 (P02791 whole entry, looked up): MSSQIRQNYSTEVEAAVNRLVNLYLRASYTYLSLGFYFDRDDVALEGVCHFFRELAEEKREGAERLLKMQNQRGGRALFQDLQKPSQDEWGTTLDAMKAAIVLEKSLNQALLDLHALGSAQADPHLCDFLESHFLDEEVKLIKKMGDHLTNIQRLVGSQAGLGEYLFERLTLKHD
Outline: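 In PBS, apoferritin at 10 uM is loaded with 1-AMA from a 50% saturated solution. After 10 min of compound exposure at ambient temperature, reduced 535 nm fluorescence indicates probe displacement.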
Also: nearly all actives have a fitted effect of over 20% in size.
Potency is read from the fitted curve at half-maximal effect; tags tell the direction and shape of the fitted curve.

Potency, inactive:
Cc1ccc(S(=O)(=O)CCC(=O)N2CCN(c3nc4c(C)c(Cl)ccc4s3)CC2)cc1
O=C(NNS(=O)(=O)c1ccc([N+](=O)[O-])cc1)C(=O)Nc1cccc(C(=O)O)c1
O=C1CN(S(=O)(=O)c2ccc([N+](=O)[O-])cc2)CC(=O)N1
Cc1cc(C(=O)N/N=C/C=C/c2ccccc2[N+](=O)[O-])c(C)o1
O=C1c2ccccc2NC(c2ccccc2)N1Cc1ccco1 (stereo not drawn)
CC(C)C[C@H]1CN=C(Nc2ccccc2)N1CCCC1CCCC1
O=C(Nc1ccccc1O)c1ccc(C(=O)c2ccccc2)o1
CCC(=O)NC(c1ccc(OC)c(OC)c1)c1cc(Cl)c2cccnc2c1O (stereo not drawn)
Cc1cc(NC(=O)c2ccc(NC(=O)C3CCCO3)cc2)ccc1Br (stereo not drawn)
CCOc1ccc(CNCc2cccnc2)cc1
O=C(O)c1cccc(S(=O)(=O)N2CCN(C(c3ccccc3)c3ccccc3)CC2)c1

Potency, inconclusive:
CCOc1ccc(CN2CCNC(=O)C2CC(=O)NC2CCCCCC2)cc1 (stereo not drawn) 50.1 µM [inhibitor, single point]
COc1ccc(NC(=O)Nc2ncn(Cc3cccc(C(F)(F)F)c3)n2)cc1OC 44.7 µM [inhibitor, single point]
CN1C(=O)NC(c2ccccc2)C2=C1CN(c1cccc(C(F)(F)F)c1)C2=O (stereo not drawn) 39.8 µM [inhibitor, partial curve]
CC1CCCC(NC(=O)CCCn2c(=S)[nH]c3ccccc3c2=O)C1C (stereo not drawn) 3.55 µM [inhibitor, full curve, poor fit]
COc1ccc(N2C(=O)CC(N3CCC(O)(c4cccc(C(F)(F)F)c4)CC3)C2=O)cc1 (stereo not drawn) 25.1 µM [inhibitor, partial curve]
Cc1ccccc1-c1noc(CSc2nnc(-c3ccncc3)n2-c2ccc(F)cc2)n1 56.2 µM [inhibitor, single point]
O=C(NCc1ccc2c(c1)OCO2)c1ccc(Cl)s1 15.8 µM [inhibitor, partial curve]
Cc1sc2c(c1C)c(=O)n(-c1cccc(C(F)(F)F)c1)c(=O)n2Cc1ccccc1C#N 11.2 µM [inhibitor, single point]
Cc1ccc(SCc2nc(-c3ccccn3)no2)cc1 56.2 µM [inhibitor, single point]
COc1ccc(C2/C(=C(\O)c3ccc4c(c3)OCCO4)C(=O)C(=O)N2CCCN(C)C)c(OC)c1 (stereo not drawn) 50.1 µM [inhibitor, single point]
Cc1nnc(NC(=O)C2CCCN(S(=O)(=O)Cc3ccccc3)C2)s1 (stereo not drawn) 28.2 µM [inhibitor, partial curve]
COc1cccc(CN(C)C(=O)c2cc(COc3c(F)cccc3F)on2)c1 15.8 µM [inhibitor, partial curve]
O=C(CCC1CCCCC1)Nc1ccccc1O 11.2 µM [inhibitor, partial curve]
CC(C)N1CC(C(=O)Nc2ccc(Cl)c(Cl)c2)CC1=O (stereo not drawn) 22.4 µM [inhibitor, partial curve]
Clc1cccc(-c2nnc(SCc3nc4ccccc4[nH]3)n2Cc2ccco2)c1 15.8 µM [inhibitor, partial curve]
COc1ccc(C(=O)NNC(=O)CNC(=O)C2CCCCC2)cc1 15.8 µM [inhibitor, partial curve]
Cc1ccc(C23CC4CC(CC(NC(=O)NC(C)(C)CO)(C4)C2)C3)cc1 44.7 µM [inhibitor, partial curve]
COc1ccc([N+](=O)[O-])cc1N(CC(O)Cn1nnc2ccccc21)S(=O)(=O)c1ccc(C)cc1 (stereo not drawn) 8.91 µM [inhibitor, partial curve]
O=C(CSc1ncnc2ccccc12)c1ccc2c(c1)OCCO2 39.8 µM [inhibitor, partial curve]
Cc1ccccc1Cn1cc(NC(=O)c2noc(C(C)C)c2[N+](=O)[O-])cn1 14.1 µM [inhibitor, partial curve]
CC(C)(C)C1COc2ccccc2N1C(=O)c1ccccc1Cl (stereo not drawn) 50.1 µM [inhibitor, single point]
COC(=O)c1c(C)sc(-c2c(-c3cccc(Cl)c3)[nH]c3c2c(=O)[nH]c(=O)n3C)c1O 8.91 µM [inhibitor, full curve, poor fit]
c1ccc2c(c1)OCC(c1nn3c(Cn4nnc5ccccc54)nnc3s1)O2 (stereo not drawn) 39.8 µM [inhibitor, single point]
COc1cc(CNCCc2ccccc2)ccc1OCc1ccc(Cl)nc1 44.7 µM [inhibitor, partial curve]
Cc1ccc(-n2ncc(C(=O)NCC3CCN(C4CCCC4)C3)c2C2CCN(C(=O)OC(C)(C)C)CC2)cc1 (stereo not drawn) 31.6 µM [inhibitor, single point]
COc1ccc(N(CC(=O)NCCC(C)C)C(=O)c2snc(C(=O)NC3CCCCC3)c2N)c(OC)c1 8.91 µM [inhibitor, single point]
Cc1ccc(C(=O)NC2CCCCCC2)o1 56.2 µM [inhibitor, single point]
O=C(CSCc1ccc(Cl)cc1)NCc1ccc2c(c1)OCO2 17.8 µM [inhibitor, partial curve]
Cc1ccsc1C(=O)OCC(=O)c1cc2ccccc2o1 15.8 µM [inhibitor, partial curve]
CCCc1ccc(OC(=O)c2ccc(O)cc2Cl)cc1 31.6 µM [inhibitor, single point]
C/C(=C\CCC1(C)C2CC3C(C2)C31C)C(=O)O (stereo not drawn) 11.2 µM [inhibitor, partial curve]
O=C(COc1ccc(C(=O)c2ccccc2)cc1)NCC(=O)Nc1ccccc1Br 50.1 µM [inhibitor, single point]
